The record followed here is PubChem BioAssay AID463173 (ICCB-Longwood Screening Facility, Harvard Medical School, 2010).

Screen size: about 52,000 compounds; about 4,300 (8.3%) were called active. Rule as the data show it: active = survival mostly below about 52% (no sharp cut-off); inactive = mostly above about 56%. The list shows a part of the results.

The assay deals with DeltatarO mutant. Kind of assay: S. aureus survival, RN4220 and DeltatarO strains – OD600, teichoic acid synthesis inhibitors, primary screen (AID 463173). As to conditions: S. aureus RN4220 wild type/DeltatarO growth, OD600, 18 h, hits give low values, screened at 18.75 µg/mL (by protocol).
On to `O=C(Cn1c(=O)oc2cc(S(=O)(=O)N3CCCCCC3)ccc21)Nc1ccc(F)cc1F`, for which the survival was inactive: 84%.
With `Cc1ccc(-n2c(=O)c3ccc(C(=O)NCc4ccco4)cc3n(CC(=O)Nc3ccccc3C(F)(F)F)c2=O)cc1` the figure was inactive: 80%; with `CN(C(=O)Cn1cnc2onc(-c3ccc(F)cc3)c2c1=O)c1ccccc1Cl`, inactive: 99%.
Regarding `Cc1cc(C)cc(-n2c(C)cc(C(=O)C(=O)Nc3nnc(C)s3)c2C)c1`, the survival is inactive: 104%.
With `Cc1cccc(N2CCN(c3ccc(C(=O)O)cc3NC(=O)c3cccc(Cl)c3)CC2C)c1` (stereo not drawn) the figure was inactive: 83%; with `Cc1cccc(C)c1NC(=O)Cn1c(=O)n(CCCS(=O)(=O)C2CCCCC2)c(=O)c2ccccc21`, inactive: 84%; with `CCc1ccc(-c2nc(SCC(=O)NCC3CCCO3)c(-c3ccc(C)cc3)[nH]2)cc1` (stereo not drawn), inactive: 103%.
Take `CCCN(C(=O)Cn1ncc2c1-c1ccccc1OC2)c1cccc(C)c1`: the survival was inactive: 87%.
With `COc1ccc(CCNC(=O)c2nc(SCc3ccccc3F)ncc2Cl)cc1OC` the figure was inactive: 64%.
As to `CCOC(=O)C1CCN(c2c(C(=O)c3ccc(OC)cc3)cnc3ccccc23)CC1`, the survival is inactive: 125%.
With `O=C(CSc1nccn1C1CCCC1)Nc1cccc(F)c1` the figure was inactive: 113%.
Turning to `CSCC[C@@H](C(=O)Nc1cccc(F)c1)N1Cc2ccccc2C1=O`, the survival was inactive: 90%.
Regarding `CCOCCc1nn2c(=O)cc(COC(=O)Cc3ccccc3)nc2s1`, the survival was active: 17%.
The same measure for `N#Cc1ccccc1NC(=O)C(=O)NCCc1csc2nc(-c3cccc(F)c3)nn12`: inactive: 70%; for `CN1CCN(C(=O)c2ccc(C3SCC(=O)N3Cc3ccco3)cc2)CC1` (stereo not drawn): inactive: 87%; for `CCOC(=O)c1[nH]c(=O)[nH]c1CSc1ccccn1`: inactive: 92%.
With `COc1ccc(OC)c(CNC(=O)CN(c2ccc(C)cc2)S(=O)(=O)N(C)C)c1` the figure was inactive: 88%; with `Cc1cccc(NC(=O)N2CCN(C)c3ncccc32)c1C`, inactive: 89%; with `CCOc1ccccc1CNC(=O)c1ccc(NC(=O)N2CC(C)Sc3ccccc32)cc1` (stereo not drawn), inactive: 78%.
The same measure for `O=C(NC1(C(F)(F)F)C(=O)Nc2c1c(=O)[nH]c(=O)n2-c1ccccc1)c1ccccc1` (stereo not drawn): inactive: 76%; for `COc1ccc2cc3c(N)c(C(=O)Nc4ncc(C)s4)sc3nc2c1`: inactive: 64%; for `CCCN(CCC)C(=O)Cn1c(SCc2cccc(C(F)(F)F)c2)nc2cccnc21`: inactive: 95%.
On to `CCOc1ccc(C(=O)NCc2nc3cccnc3n2Cc2cccc(OC)c2)cc1`, for which the survival is inactive: 96%.
The same measure for `CCN(c1ccc(Cl)cc1)S(=O)(=O)c1nnc(NC(=O)c2ccccc2C)s1`: active: 8%.
With `O=C(NCCCc1nc2ccccc2n1Cc1ccccc1Cl)c1ccco1`, the survival is inactive: 66%.
As to `CC(CNC(=O)C1CCN(C(=O)N2CCOc3ccc(Cl)cc32)CC1)c1ccccc1` (stereo not drawn), the survival was inactive: 52%.
The same measure for `CC(=O)Nc1nonc1-c1nc2ccccc2n1Cc1ccc(Cl)cc1Cl`: inactive: 88%; for `COc1ccc(NC(=O)CSc2nc3ccccc3n2CC(=O)N2CCCCC2C)cc1` (stereo not drawn): inactive: 88%.
With `COc1ccc(-c2onc(C)c2C)cc1S(=O)(=O)NCc1ccc(C)o1` the figure was inactive: 89%.
`Cc1nn(CCC(=O)NCc2ccc(Cl)cc2)c(=O)c2nn(-c3ccccc3)c(C)c12`: the survival is active: 0%.
The same measure for `COc1ccc(CCCc2nnc(SCC(=O)Nc3cccc(C)c3)o2)cc1`: inactive: 81%.
With `CCOc1cccc(CC(=O)NCc2ccc3c(c2)CCN3C(C)=O)c1OCC`, the survival was inactive: 83%.
The same measure for `CCC(C)NC(=O)CCc1c(C)nc2c(c(C)nn2-c2ccc(C)cc2)c1C` (stereo not drawn): inactive: 93%; for `Cc1ccc2[nH]cc(C(c3ccccc3)c3ccc(C)s3)c2c1` (stereo not drawn): active: 25%.
With `Cc1c(Cl)cccc1NC(=O)CC(c1ccc(F)cc1)N1Cc2ccccc2C1=O` (stereo not drawn) the figure was active: 37%; with `COCC(C)NC(=O)c1cc2c(=O)n3cccc(C)c3nc2s1` (stereo not drawn), inactive: 65%.
As to `CCOC(=O)c1ccc(-c2ccc(/C=C(\C#N)c3nc4ccc(C)cc4[nH]3)o2)cc1`, the survival is active: 32%.
With `CCc1ccc(Sc2cc(C(=O)O)c3ccccc3n2)cc1` the figure was inactive: 78%.
In the case of `COc1ccc(Cn2c(CO)cnc2SCc2ccc(F)cc2)cc1`, the survival was active: 17%.
For `O=C(CN1CCCC1)Nc1ccc(F)cc1`, the survival is inactive: 97%.
With `COc1ccc(-n2nc(C(=O)N(C)c3cc(Cl)ccc3OC)c3c4ccccc4n(C)c3c2=O)cc1` the figure was inactive: 88%; with `COc1ccc(S(=O)(=O)c2nnn(-c3ccccc3F)c2C)cc1`, inactive: 79%; with `Cc1nn(CCCC(=O)NCc2ccc(OC(C)C)cc2)c(=O)c2c1sc1ccccc12`, inactive: 73%.
Take `Cc1ccc(Cc2nc3ccccc3nc2SCC(=O)N2CCN(c3ccccc3)CC2)cc1`: the survival is inactive: 84%.
With `CCOc1ccccc1NC(=O)C1=C(C)Nc2ncnn2C1c1ccc(NC(C)=O)cc1` (stereo not drawn) the figure was inactive: 63%; with `Cc1ccc(NC(=O)CC2Nc3cc(C)c(C)cc3NC2=O)c(C)c1` (stereo not drawn), inactive: 72%.
The same measure for `N#CC1=C2SCN(C3CCCCC3)CN2C(=O)CC1c1c(F)cccc1Cl` (stereo not drawn): inactive: 82%; for `O=[N+]([O-])c1cc(-c2nc(-c3ccco3)no2)ccc1NCc1ccccc1`: active: 47%.
With `Nn1cnnc1SCC(=O)N(C1CCCCC1)C1CCCCC1` the figure was inactive: 85%; with `CCCN1CCN(c2cc3c(cc2F)c(=O)c(S(=O)(=O)c2ccc(CC)cc2)cn3CC)CC1`, inactive: 94%.
In the case of `O=C(CSc1nnnn1-c1ccc2c(c1)OCCO2)NC1CCCC1`, the survival is inactive: 79%.
Regarding `CCn1ccc2c(OCC(=O)NCc3ccccc3)cccc2c1=O`, the survival is inactive: 102%.
For the compound `Cc1ccc(S(=O)(=O)c2[nH]c(-c3ccccc3)nc2SCCC(=O)O)cc1`, the survival is inactive: 78%.
With `COCCn1c(SCC(=O)Nc2sc(C)c(C)c2C#N)nnc1C(C)C` the figure was inactive: 86%; with `CCCn1c(=N)n(CC(O)COc2ccccc2OC)c2ccccc21` (stereo not drawn), inactive: 88%.
The same measure for `Cc1cccc(N(Cc2cc3ccccc3[nH]c2=O)C(=O)c2cccc(Cl)c2)c1`: inactive: 76%; for `CCOc1ccc(NC(=O)c2c(Nc3ccccc3C)sc(C(=O)c3ccc(Cl)cc3)c2N)cc1`: inactive: 126%.
As to `Cc1nn(CC(=O)N2CCN(c3cccc(C(F)(F)F)c3)CC2)c(=O)c2cc3sccc3n12`, the survival was inactive: 90%.
